Results taken from patent US8415399B2, “Retrovirus-infection inhibitor” (Nagasaki University, priority 2006, dated 2013).

System: NP2/CD4/X4 cell
Assay: Cytotoxicity test: cell count, cell proliferation
Conditions: NP2/CD4/X4 cell, Example 3

## CC(C)=CCC/C(C)=C/CC/C(C)=C/CC/C(C)=C/C(=O)O [GGA, geranylgeranoic acid]
20 μM
  cell proliferation suppressed to (relative to untreated): 55%

## CC(C)=CCC/C(C)=C/CC/C(C)=C/C=C/C(C)=C/C(=O)O [NIK-333]
5 μM
  cell proliferation: scarcely influenced

## CC1=C(/C=C/C(C)=C/C=C/C(C)=C/C(=O)Nc2ccc(O)cc2)C(C)(C)CCC1 [fenretinide, 4-Hydroxyphenylretinoid, reference compound]
2 μM
  cell proliferation decreased to (relative to untreated): 10%
